Patent US20140243322A1, “BIVALENT BROMODOMAIN LIGANDS, AND METHODS OF USING SAME” (Coferon, Inc., priority 2011, published 2014)
Some results were stated once for a whole list of compounds, not compound by compound.

Assays:
Format in all cases: binding
Conditions in all cases: 1 μM protein; test compounds at 0.5, 1 or 2 μM; vs DMSO control
[1] = test system: BRD2 tandem; assay: Differential Scanning Fluorimetry (DSF), BRD2 tandem
[2] = test system: BRD3 tandem; assay: Differential Scanning Fluorimetry (DSF), BRD3 tandem
[3] = test system: BRD4 tandem; assay: Differential Scanning Fluorimetry (DSF), BRD4 tandem

COc1ccc2c(c1)C(c1ccc(Cl)cc1)=N[C@@H](CC(=O)NCCOCCOCCOCCOCCOCCOCCOCCOCCOCCNC(=O)C[C@@H]1N=C(c3ccc(Cl)cc3)c3cc(OC)ccc3-n3c(C)nnc31)c1nnc(C)n1-2 [BRD-B-23, (S)—N,N′-(3,6,9,12,15,18,21,24,27-nonaoxanonacosane-1,29-diyl)bis(2-((4S)-6-(4-chlorophenyl)-8-methoxy-1-methyl-4H-benzo[f][1,2,4]triazolo[4,3-a][1,4]diazepin-4-yl)acetamide)]
B (3-6° C.): Temperature Shift (Δ Tm) range, BRD2 tandem [1] | Temperature Shift (Δ Tm) range, BRD3 tandem [2] | Temperature Shift (Δ Tm) range, BRD4 tandem [3]
